Measurements as given in patent US20230203204A1 (published 2023).

T1: recombinant human RANKL-murine Fc fusion protein (Sino Biological Inc.) (human, UniProt O14788 136-317, limits assumed)
T1 construct: Bought; not shown: murine Fc
T1 sequence (looked up): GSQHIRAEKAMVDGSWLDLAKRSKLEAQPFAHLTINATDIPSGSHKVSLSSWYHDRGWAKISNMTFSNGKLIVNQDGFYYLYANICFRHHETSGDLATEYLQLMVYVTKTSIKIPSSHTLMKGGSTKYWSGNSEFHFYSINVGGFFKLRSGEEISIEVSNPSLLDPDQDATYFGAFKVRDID


Key:
[1] = biological target: T1, recombinant human RANKL-murine Fc …; assay: ELISA, human RANKL-murine Fc coated at 1 ug/mL, fusion protein titrated, anti-human IgG Fc-AP detection
[2] = biological target: T2, Recombinant human TNFa (SinoBiological) (human, UniProt P01375 in part); assay: ELISA, rhTNFa coated, fusion protein titrated, anti-human IgG Fc-AP detection
T2 construct: also called rhTNFa
T2 sequence (P01375 77-233 limits assumed): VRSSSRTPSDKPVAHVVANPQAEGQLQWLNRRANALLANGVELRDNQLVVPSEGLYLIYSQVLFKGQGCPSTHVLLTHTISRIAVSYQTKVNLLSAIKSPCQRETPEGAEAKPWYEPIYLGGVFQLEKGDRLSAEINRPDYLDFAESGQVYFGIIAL

Binder	EC50 [1]	EC50 [2]
OPG-TNFR2-Fc fusion protein (Fc fusion, also called OPG(1-194)-TNFR2(23-257)-Fc; OTFc) ETFPPKYLHYDEETSHQLLCDKCPPGTYLKQHCTAKWKTVCAPCPDHYYTDSWHTSDECLYCSPVCKELQYVKQECNRTHNRVCECKEGRYLEIEFCLKHRSCPPGFGVVQAGTPERNTVCKRCPDGFFSNETSSKAPCRKHTNCSVFGLLLTQKGNATHDNICSGNSESTQKLPAQVAFTPYAPEPGSTCRLREYYDQTAQMCCSKCSPGQHAKVFCTKTSDTVCDSCEDSTYTQLWNWVPECLSCGSRCSSDQVETQACTREQNRICTCRPGWYCALSKQEGCRLCAPLRKCRPGFGVARPGTETSDVVCKPCAPGTFSNTTSSTDICRPHQICNVVAIPGNASRDAVCTSTSPTRSMAPGAVHLPQPVSTRSQHTQPTPEPSTAPSTSFLLPMGPSPPAEGSTGD[left out - human IgG1 Fc]	0.0099 mg/L	0.033 mg/L
TNFR2 (1-257)-OPG(22-194)-TNFR2(202-257)-Fc fusion protein (Fc fusion, also called TNFR2-OPG-Fc; TOFc) LPAQVAFTPYAPEPGSTCRLREYYDQTAQMCCSKCSPGQHAKVFCTKTSDTVCDSCEDSTYTQLWNWVPECLSCGSRCSSDQVETQACTREQNRICTCRPGWYCALSKQEGCRLCAPLRKCRPGFGVARPGTETSDVVCKPCAPGTFSNTTSSTDICRPHQICNVVAIPGNASRDAVCTSTSPTRSMAPGAVHLPQPVSTRSQHTQPTPEPSTAPSTSFLLPMGPSPPAEGSTGDETFPPKYLHYDEETSHQLLCDKCPPGTYLKQHCTAKWKTVCAPCPDHYYTDSWHTSDECLYCSPVCKELQYVKQECNRTHNRVCECKEGRYLEIEFCLKHRSCPPGFGVVQAGTPERNTVCKRCPDGFFSNETSSKAPCRKHTNCSVFGLLLTQKGNATHDNICSGNSESTQKSTSPTRSMAPGAVHLPQPVSTRSQHTQPTPEPSTAPSTSFLLPMGPSPPAEGSTGD[left out - human IgG1 Fc]	0.0094 mg/L	0.068 mg/L
